# Inconclusive means that the source gave no clear call. Such entries were picked first, then a sample of the others. For some assays here: No potency is given beside an inconclusive call; the fits are too rough. For some assays here: “Side channel” marks fits to a control or component signal instead of the main read-out. The source made the active and inactive calls. Unless noted, calls come from the whole dose curve; as a rule, active = well fitted curve in the direction sought with a large enough effect; inconclusive = small, poorly fitted or top-dose-only effect, or another doubt; inactive = no such curve, though single readings can be large; an effect the other way counts as inactive or inconclusive.
# How the values were obtained:
# [1] = qHTS to identify inhibitors of the type 1 interferon - major histocompatibility complex class I in skeletal muscle: primary screen against the NCATS LOPAC collection (AID 1347405); conditions: iHSKM muscle cells, IFN-b-induced MHC-I HiBiT luminescence, 24 h; activity change, negative = inhibition: at 45.9 µM (top of the series);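 note: lytic HiBiT luminescence reporting HLA-B protein level; potency is the fitted concentration of half-maximal effect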
# Summary of the method: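 CRISPR-engineered immortalized human myoblasts (C25cl48) with HiBiT fused to endogenous HLA-B*08:01, stimulated with 4 ng/ml IFN-beta. LOPAC compounds tested as a 7-point 1:4.3 titration (top 46 uM final), 24 h at 37 C; lytic HiBiT luminescence read.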
# HB3 = experiment: qHTS profiling for inhibitors of Plasmodium falciparum proliferation (AID 504749); note: nearly all actives have a fitted effect of over 60% in size; note: potency is the fitted concentration of half-maximal effect;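 for activity, negative = inhibition: 0% = DMSO vehicle and full inhibition = artemisinin control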; conditions: P. falciparum in erythrocytes, SYBR Green DNA, 72 h; series mostly up to 28.7 µM
# Summary of the method: (§1)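 P. falciparum-infected erythrocytes (0.3% parasitemia, 2.5% hematocrit) incubated with compound 72 h at 37 C, 5% CO2. Parasite DNA detected by SYBR Green after lysis, overnight at room temperature; normalised to 0.29 uM artemisinin and DMSO.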
# [2] = Stat Signaling Pathway (AID 446; active = well fitted curve in either direction with a large enough effect, not every such curve was filed as active; inconclusive = small, poorly fitted or top-dose-only effect, or another doubt;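 note: ME-180 cervical cancer cells given 40 pM IL-6 alongside compound; SIE-controlled beta-lactamase reporter measured as 460/530 nm FRET emission ratio; top concentration of the series differs between compounds; % is set by controls: 0 for no effect and ±100 for the full control effect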); conditions: ME-180 SIE beta-lactamase reporter, IL-6 stimulated, 5 h; at 38 µM (top of the series)
# Summary of the method: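 Reporter line: ME-180 cervical carcinoma, SIE-beta-lactamase. Treatment: compound with 40 pM IL-6, 5 hrs, 37 C, in low-serum OPTI-MEM with 10 mM HEPES pH 7.3. Detection: 460/530 nm fluorescence.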
# [3] = qHTS for differential inhibitors of proliferation of Plasmodium falciparum line 3D7 (AID 1876); note: potency is the fitted concentration of half-maximal effect
# [4] = qHTS for differential inhibitors of proliferation of Plasmodium falciparum line W2 (AID 1883); conditions: Potency: Plasmodium falciparum W2 proliferation inhibition;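 note: potency is the fitted concentration of half-maximal effect; parasites grown with compound for 72 h before lysis and staining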
# [5] = Quantitative high throughput screen for delayed death inhibitors of the malarial parasite plastid, 48 hour incubation (AID 488752); note: % is set by controls: 0 for no effect and ±100 for the full control effect; nearly all actives have a fitted effect of over 65% in size
# Summary of the method: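 Erythrocytes infected with firefly luciferase-expressing P. falciparum (2% hematocrit, 0.1% parasitemia) cultured with compound for 48 h at 37 C, 5% CO2, in RPMI 1640/0.5% Albumax. Growth inhibition read as loss of luminescence.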
# [6] = molecular target: M-phase phosphoprotein 8 (Homo sapiens) (UniProt Q99549); experiment: qHTS Validation Assay for Inhibitors for MPP8 Chromodomain Interactions with Methylated Histone Tails (AID 488949); conditions: AlphaScreen MPP8 binding to H3K9me3 peptide; note: potency is the fitted concentration of half-maximal effect; nearly all actives have a fitted effect of over 55% in size
# Summary of the method: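 MPP8 (50 nM) was preincubated with biotinylated H3(1-18)K9me3 peptide (50 nM) in PBS pH 7.4, 0.01% Tween-20 for 30 min at room temperature, then with compounds for 30 min; binding was detected by AlphaScreen.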
# [7] = Validation screen for small molecules that induce DNA re-replication in SW480 colon adenocarcinoma cells (AID 504364); note: potency is the fitted concentration of half-maximal effect
# Summary of the method: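 SW480 cells (250/well) exposed 48 h at 37 C, 5% CO2, then Hoechst-stained 40 min. Nuclear DNA content imaged by fluorescence scanning (405 nm excitation, 500-530 nm emission); re-replication scored as increased nuclei with elevated intensity.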
# CP262 = experiment: qHTS profiling for inhibitors of Plasmodium falciparum proliferation (AID 504749); note: nearly all actives have a fitted effect of over 60% in size; note: potency is the fitted concentration of half-maximal effect;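 for activity, negative = inhibition: 0% = DMSO vehicle and full inhibition = artemisinin control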; conditions: P. falciparum in erythrocytes, SYBR Green DNA, 72 h; series mostly up to 28.7 µM
# Summary of the method: as §1
# [8] = molecular target: Luciferin 4-monooxygenase (Photinus pyralis) (UniProt P08659); experiment: qHTS screen for small molecules that inhibit ELG1-dependent DNA repair: Hit Confirmation in Biochemical Luciferin Assay (AID 624253); conditions: purified firefly luciferase, luminescence counter-screen; note: potency is the fitted concentration of half-maximal effect
# Summary of the method: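 Cell-free firefly luciferase counterassay: compounds were added to substrate reagent, then luciferase enzyme was added. Luminescence read on a CCD-based imager.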
# [9] = molecular target: Tyrosine-protein phosphatase non-receptor type substrate 1 (Homo sapiens) + Leukocyte surface antigen CD47 (Homo sapiens) (UniProt P78324+Q08722); experiment: CD47-SIRPalpha protein protein interaction - HTRF assay qHTS validation (AID 1347058; active = well fitted curve in the direction sought with a large enough effect in the signal ratio, not every such curve was filed as active; inconclusive = small, poorly fitted or top-dose-only effect, or effect the other way, or a change in a side signal; inactive = no such curve, though single readings can be large or run the other way; the % refers to the signal ratio; note: potency is the fitted concentration of half-maximal effect)
# Summary of the method: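 TR-FRET read (Ch1/Ch2 ratio) of soluble extracellular CD47 and Avi-biotinylated SIRPalpha domains in PBS pH 7.4 with 0.05% IGEPAL; 7-point compound titration. Sequential 30 min room-temperature steps; non-biotinylated SIRPalpha as control inhibitor.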
# [10] = MultiTox-Fluor Cytotoxicity Assay - LYMP1-002 - Dead Cells (AID 960); note: potency is the fitted concentration of half-maximal effect; nearly all actives have a fitted effect of over 60% in size
# Summary of the method: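 Human lymphoblastoid LYMP1-002 cells, 2500/well, treated 16 h at 37 C; dead-cell protease cleavage of bis-AAF-R110 read by fluorescence (485/520); normalized to DMSO and 15 uM tetraoctylammonium bromide; AC50 from Hill fit.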
# [11] = qHTS assay to identify small molecules that stimulate interleukin-8 (IL-8) secretion (AID 651758; active = well fitted activation curve with a large enough effect in the signal ratio; inconclusive = small, poorly fitted or top-dose-only effect, or effect the other way, or a change in a side signal; the % refers to the signal ratio; note: potency is the fitted concentration of half-maximal effect; for activation: 0% is about no effect); conditions: HTRF ratio (665/615); activation: at 92.2 µM (top of the series)
# Summary of the method: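 THP-1 cells (2000/well) exposed to compound 16 h at 37 C; secreted IL-8 then detected by HTRF with cryptate- and XL665-labelled anti-IL-8 antibody pair after 1-3 h at room temperature.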
# [12] = qHTS assay for small molecule agonists of the antioxidant response element (ARE) signaling pathway measured by Nrf2-dependant transcriptional activity (AID 720636; active = well fitted curve in the direction sought with a large enough effect in the repeat runs; inconclusive = weak or mixed curves; inactive = no such curve, though single readings can be large; an effect the other way counts as inactive or inconclusive; note: potency is the fitted concentration of half-maximal effect)
# Summary of the method: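 We exposed ARE-luc HepG2 cells, seeded in assay medium with 1% dialyzed FBS and allowed 6 hr to adhere, to test compounds overnight (16 hr, 37 C) before measuring luciferase with ONE-Glo.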
# [13] = Quantitative High-Throughput drug screen in 47 multiple myeloma cell lines against the NCATS MIPE library collection: ARD_JJKsccE7 cell viability assay (AID 1918929; note: potency is the fitted concentration of half-maximal effect)
# Summary of the method: (§2)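 We plated 500 myeloma cells per well, pinned in MIPE 4.0 compounds, and incubated for 48 hours at 37C. ATP was then quantified with CellTiter-Glo, with DMSO and media-only wells defining 100% and 0%.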
# [14] = Confirmatory screen NINDS Rhodamine qHTS for Zika virus inhibitors (AID 1347161); note: nearly all actives have a fitted effect of over 60% in size; note: potency is the fitted concentration of half-maximal effect;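 for activity change, negative = inhibition: purified Zika NS2B-NS3 protease with linked NS2B cofactor domain and Rhodamine110 peptide substrate; plate controls were no-inhibitor control for no effect and no-enzyme control for full effect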
# Summary of the method: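 Aprotinin served as in-plate control. Conditions: 25 nM linked NS2B-NS3, pH 8.0 Tris buffer, titrated compounds, 15 min preincubation and 15 min reaction with 1.5 microM Rhod110 substrate at room temperature.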
# [15] = qHTS of pediatric cancer cell lines to identify multiple opportunities for drug repurposing: Confirmatory screen for SJ-GBM2 cells (AID 1347116)
# Summary of the method: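 Viability measured as metabolically active cells via CellTiter-Glo luminescence following 48 hours of compound exposure, 11-point dilutions in confirmatory testing. 500-1,000 cells/well plated 5 hours before dosing; controls were DMSO and 2.3 µM bortezomib.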
# [16] = Quantitative High-Throughput drug screen in 47 multiple myeloma cell lines against the NCATS MIPE library collection: JJN3_DSMZ cell viability assay (AID 1918966; note: potency is the fitted concentration of half-maximal effect; nearly all actives have a fitted effect of over 50% in size)
# Summary of the method: as §2
# [17] = Quantitative High-Throughput drug screen in 47 multiple myeloma cell lines against the NCATS MIPE library collection: FR4_PLB cell viability assay (AID 1918924; note: potency is the fitted concentration of half-maximal effect; nearly all actives have a fitted effect of over 35% in size)
# Summary of the method: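 Myeloma cell lines, 500 cells per well, exposed to MIPE 4.0 library compounds for 48 h at 37C, 5% CO2. Viability from ATP by CellTiter-Glo luminescence; normalised to DMSO (100%) and media-only (0%) wells.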
# [18] = molecular target: 3',5'-cyclic-AMP phosphodiesterase 4B (Homo sapiens) (UniProt Q07343); experiment: qHTS Assay for Inhibitors of PDE-IV (AID 607; active = well fitted activation curve with a large enough effect in the main read-out, with a control signal flat, not every such curve was filed as active; inconclusive = small, poorly fitted or top-dose-only effect, or effect the other way, or a change in a side signal; note: potency is the fitted concentration of half-maximal effect)
# Summary of the method: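 Cell-based read-out of cAMP via a modified cyclic nucleotide-gated channel and membrane potential dye (535/590 nm) in HEK293 cells expressing PDE4 endogenously. Compounds tested up to 22.9 uM final; 100 uM RO 20-1724 reference.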
# Tags give direction and shape of the fitted curve.
# Chain of UniProt Q07343 (Q07343 whole entry, looked up): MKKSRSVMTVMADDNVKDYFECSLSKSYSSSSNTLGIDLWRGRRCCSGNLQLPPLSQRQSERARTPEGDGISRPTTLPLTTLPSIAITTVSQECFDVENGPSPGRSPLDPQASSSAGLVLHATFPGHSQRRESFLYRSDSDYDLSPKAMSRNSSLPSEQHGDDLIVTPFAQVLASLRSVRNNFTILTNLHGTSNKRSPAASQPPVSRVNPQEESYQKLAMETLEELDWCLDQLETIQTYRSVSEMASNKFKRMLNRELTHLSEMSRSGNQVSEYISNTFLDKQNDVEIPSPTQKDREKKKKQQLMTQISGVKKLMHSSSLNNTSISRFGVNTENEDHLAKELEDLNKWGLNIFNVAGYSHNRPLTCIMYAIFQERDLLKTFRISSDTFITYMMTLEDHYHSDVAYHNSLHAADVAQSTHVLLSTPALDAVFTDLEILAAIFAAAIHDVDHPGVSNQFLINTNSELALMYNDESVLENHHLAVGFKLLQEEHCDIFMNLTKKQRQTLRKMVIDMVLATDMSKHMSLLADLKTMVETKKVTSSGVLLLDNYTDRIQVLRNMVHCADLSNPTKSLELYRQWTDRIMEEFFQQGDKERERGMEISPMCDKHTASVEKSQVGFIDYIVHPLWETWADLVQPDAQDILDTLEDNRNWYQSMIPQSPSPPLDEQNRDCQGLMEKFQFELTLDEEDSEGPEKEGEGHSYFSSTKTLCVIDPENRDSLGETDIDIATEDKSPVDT
# Chain of UniProt P78324 (P78324 whole entry, looked up, the tested form may be a part): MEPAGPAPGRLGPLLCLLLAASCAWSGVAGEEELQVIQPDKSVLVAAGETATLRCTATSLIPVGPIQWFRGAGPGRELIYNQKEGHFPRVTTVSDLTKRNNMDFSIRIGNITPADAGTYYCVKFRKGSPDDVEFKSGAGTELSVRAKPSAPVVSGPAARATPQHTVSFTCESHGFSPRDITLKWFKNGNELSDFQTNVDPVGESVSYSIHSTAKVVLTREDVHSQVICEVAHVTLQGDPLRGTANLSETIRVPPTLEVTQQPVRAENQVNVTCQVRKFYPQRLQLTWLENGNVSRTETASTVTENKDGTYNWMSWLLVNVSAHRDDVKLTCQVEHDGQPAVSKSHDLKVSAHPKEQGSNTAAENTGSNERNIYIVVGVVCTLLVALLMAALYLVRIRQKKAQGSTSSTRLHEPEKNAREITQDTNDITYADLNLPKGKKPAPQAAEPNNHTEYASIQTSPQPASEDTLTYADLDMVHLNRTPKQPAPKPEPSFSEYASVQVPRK
# Chain of UniProt P78324 (Q08722 whole entry, looked up, the tested form may be a part): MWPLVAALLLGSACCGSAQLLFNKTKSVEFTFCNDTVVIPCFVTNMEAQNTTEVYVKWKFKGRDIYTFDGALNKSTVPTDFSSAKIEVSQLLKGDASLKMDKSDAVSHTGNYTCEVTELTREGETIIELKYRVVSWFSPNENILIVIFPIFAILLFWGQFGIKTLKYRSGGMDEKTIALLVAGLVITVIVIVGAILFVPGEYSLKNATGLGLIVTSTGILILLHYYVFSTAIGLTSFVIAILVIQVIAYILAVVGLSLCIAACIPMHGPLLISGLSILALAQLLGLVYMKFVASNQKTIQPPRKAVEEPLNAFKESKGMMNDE
# Chain of UniProt Q99549 (Q99549 whole entry, looked up): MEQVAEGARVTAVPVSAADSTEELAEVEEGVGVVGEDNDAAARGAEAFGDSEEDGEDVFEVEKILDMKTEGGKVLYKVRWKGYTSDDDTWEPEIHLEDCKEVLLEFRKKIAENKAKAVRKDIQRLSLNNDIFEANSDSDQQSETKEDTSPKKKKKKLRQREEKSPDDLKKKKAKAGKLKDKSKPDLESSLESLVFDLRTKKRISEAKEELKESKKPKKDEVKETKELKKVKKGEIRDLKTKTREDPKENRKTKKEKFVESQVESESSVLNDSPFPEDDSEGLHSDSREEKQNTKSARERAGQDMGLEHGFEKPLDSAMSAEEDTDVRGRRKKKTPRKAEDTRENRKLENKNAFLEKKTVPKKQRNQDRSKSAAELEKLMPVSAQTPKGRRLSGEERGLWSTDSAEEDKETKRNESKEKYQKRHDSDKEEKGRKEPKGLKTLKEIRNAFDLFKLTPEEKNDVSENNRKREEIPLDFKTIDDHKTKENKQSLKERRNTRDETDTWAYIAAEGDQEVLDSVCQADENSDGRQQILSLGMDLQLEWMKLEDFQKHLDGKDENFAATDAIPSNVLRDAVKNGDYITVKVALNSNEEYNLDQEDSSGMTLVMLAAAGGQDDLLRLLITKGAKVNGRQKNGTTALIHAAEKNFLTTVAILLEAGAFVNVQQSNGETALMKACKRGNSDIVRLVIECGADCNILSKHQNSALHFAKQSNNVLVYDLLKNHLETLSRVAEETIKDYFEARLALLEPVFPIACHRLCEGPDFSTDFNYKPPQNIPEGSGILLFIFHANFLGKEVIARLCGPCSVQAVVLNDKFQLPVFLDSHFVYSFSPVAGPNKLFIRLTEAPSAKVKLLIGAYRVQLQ
compound,measurement,setting,value
Nc1ncnc2n[nH]c(Nc3ccc(F)cc3)c12,Potency,[1],"inconclusive [inhibitor, partial curve, poor fit]"
CN(Cc1ccc(C(C)(C)C)cc1)Cc1cccc2ccccc12,Potency,HB3,"inconclusive [inhibitor, single point]"
CN(C)CCCN1c2ccccc2Sc2ccccc21,"activity, negative = inhibition",[2],inconclusive: -91.7% [inhibitor]
same,Potency,[3],"inconclusive [inhibitor, single point]"
same,Potency,[4],active: 0.794 µM
same,Potency,[5],inactive
same,Potency,[6],"inconclusive [inhibitor, full curve]"
same,Potency,[7],"inconclusive [activator, partial curve, poor fit]"
COc1cc2c(cc1OC)C(=O)C(CC1CCN(Cc3ccccc3)CC1)C2 (centres undefined),Potency,CP262,inactive
CC(/C=C/C(=O)NO)=C\[C@@H](C)C(=O)c1ccc(N(C)C)cc1,Potency,[8],"inconclusive [inhibitor, partial curve, poor fit]"
Cc1nc2ccccn2c(=O)c1CCN1CCC(C(=O)c2ccc(F)cc2)CC1,Potency,[9],"inconclusive [side channel, falling, partial curve]"
CCCCCCc1ccc(O)cc1O,Potency,[10],"inconclusive [cytotoxic, full curve, poor fit]"
same,activation,[11],inconclusive: 22%
same,Potency,[12],"inconclusive [activator, partial curve, poor fit]"
Cc1cc(C(C)(C)C)c(O)c(C(C)(C)C)c1,Potency,[10],"inconclusive [cytotoxic, single point]"
same,Potency,[11],"inconclusive [activator, single point]"
same,Potency,[12],"inconclusive [activator, partial curve, poor fit]"
CCS(=O)(=O)N1CC(CC#N)(n2cc(-c3ncnc4[nH]ccc34)cn2)C1,Potency,[13],inactive
COc1ncc(Nc2ncc([C@@H](C)N3CCN(S(C)(=O)=O)CC3)cc2-c2nc(C)nc(N)n2)cc1F,Potency,[14],"inconclusive [inhibitor, single point]"
Cc1nc(N)ncc1-c1nc(N2CCOCC2)c2sc(C(C)(C)O)cc2n1,Potency,[15],"inconclusive [cytotoxic, full curve, poor fit]"
same,Potency,[13],active: 0.0332 µM
same,Potency,[16],active: 5.26 µM
CN[C@@H]1C[C@H]2O[C@@](C)([C@H]1OC)n1c3ccccc3c3c4c(c5c6ccccc6n2c5c31)C(=O)N[C@H]4O,Potency,[14],inactive
same,Potency,[17],active: 2.09 µM
COc1ccc(F)c(F)c1C(=O)c1cnc(NC2CCN(S(C)(=O)=O)CC2)nc1N,Potency,[15],active: 0.827 µM
same,Potency,[17],active: 2.35 µM
same,Potency,[16],active: 1.32 µM
CNCC[C@@H](Oc1ccccc1C)c1ccccc1,Potency,[18],"inconclusive [rising, partial curve]"
c1ccc(CN(CC2=NCCN2)c2ccccc2)cc1,Potency,[18],"inconclusive [rising, partial curve]"
